# PubChem BioAssay AID1347165 (National Center for Advancing Translational Sciences (NCATS), 2019)
# Hit rate of the full screen: of about 220,000 compounds, about 5,700 (2.6%) were called active. This list was built around the results that the source calls inconclusive (neither active nor inactive); the mix of calls is not that of the screen. Calls follow the shape of the dose curve; as a rule, active = well fitted inhibition curve with a large enough effect; inconclusive = small, poorly fitted or top-dose-only effect; inactive = no such curve, though single readings can be large or run the other way. Potencies of inconclusive entries are doubtful fits and often do not repeat.
# Target: Lysine-specific demethylase 5B (Homo sapiens) (UniProt Q9UGL1)
# Sequence of UniProt Q9UGL1 (Q9UGL1 whole entry, looked up): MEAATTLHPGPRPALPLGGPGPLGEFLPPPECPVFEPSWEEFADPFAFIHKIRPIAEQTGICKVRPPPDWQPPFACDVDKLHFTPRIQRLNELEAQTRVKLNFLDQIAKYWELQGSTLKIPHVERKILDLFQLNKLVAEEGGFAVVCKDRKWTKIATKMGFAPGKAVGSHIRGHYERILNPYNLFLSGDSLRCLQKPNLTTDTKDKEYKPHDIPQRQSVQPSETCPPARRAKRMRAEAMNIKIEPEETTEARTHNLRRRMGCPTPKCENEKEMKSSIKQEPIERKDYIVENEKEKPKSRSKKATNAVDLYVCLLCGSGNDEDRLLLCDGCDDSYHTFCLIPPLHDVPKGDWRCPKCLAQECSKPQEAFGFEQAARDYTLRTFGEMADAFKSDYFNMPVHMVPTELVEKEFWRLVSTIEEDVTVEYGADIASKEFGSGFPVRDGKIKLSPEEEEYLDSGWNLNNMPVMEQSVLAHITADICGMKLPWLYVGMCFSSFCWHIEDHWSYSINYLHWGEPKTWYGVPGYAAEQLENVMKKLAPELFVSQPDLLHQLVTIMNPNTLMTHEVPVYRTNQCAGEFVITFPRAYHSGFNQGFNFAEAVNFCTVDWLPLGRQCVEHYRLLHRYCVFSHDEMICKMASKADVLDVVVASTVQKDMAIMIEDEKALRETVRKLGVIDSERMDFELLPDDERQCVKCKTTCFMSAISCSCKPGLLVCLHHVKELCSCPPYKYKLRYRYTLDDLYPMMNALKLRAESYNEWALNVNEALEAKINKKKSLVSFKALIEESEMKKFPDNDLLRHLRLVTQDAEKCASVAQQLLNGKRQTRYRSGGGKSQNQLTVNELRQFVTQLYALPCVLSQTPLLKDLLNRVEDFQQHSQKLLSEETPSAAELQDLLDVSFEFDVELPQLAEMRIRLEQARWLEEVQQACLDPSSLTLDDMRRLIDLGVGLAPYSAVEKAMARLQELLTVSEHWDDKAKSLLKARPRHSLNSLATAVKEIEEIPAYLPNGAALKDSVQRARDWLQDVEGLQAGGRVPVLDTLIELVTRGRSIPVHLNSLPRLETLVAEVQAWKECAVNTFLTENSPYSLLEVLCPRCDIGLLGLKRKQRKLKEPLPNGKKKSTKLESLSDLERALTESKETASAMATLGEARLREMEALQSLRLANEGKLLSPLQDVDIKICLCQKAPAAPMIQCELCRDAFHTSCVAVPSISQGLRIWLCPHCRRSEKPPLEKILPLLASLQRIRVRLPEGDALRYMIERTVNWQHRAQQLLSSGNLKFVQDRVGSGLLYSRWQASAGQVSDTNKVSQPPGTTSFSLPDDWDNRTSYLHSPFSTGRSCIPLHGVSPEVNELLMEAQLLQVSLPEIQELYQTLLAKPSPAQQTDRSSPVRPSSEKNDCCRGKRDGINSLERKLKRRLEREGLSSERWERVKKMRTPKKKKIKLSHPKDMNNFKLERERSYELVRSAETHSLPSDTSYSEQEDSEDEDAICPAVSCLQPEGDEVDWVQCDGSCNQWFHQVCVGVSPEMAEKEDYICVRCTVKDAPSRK
# Assay: Primary screen for KDM5B Histone Demethylases FDH-coupled qHTS; also: nearly all actives have a fitted effect of over 70% in size
# Details: FDH-coupled NADH fluorescence (FDH is formaldehyde dehydrogenase); series mostly up to 57.7 µM
# Procedure, shortened: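 qHTS format, multiple compound concentrations. Buffer 50 mM HEPES pH 7.5/0.01% Tween-20; 200 nM KDM5BΔAP final; 10 min compound preincubation; substrate-mix levels 12.5 µM peptide, 25 µM α-KG, 0.25 mM NAD⁺; 30 min RT; ΔRFU.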
# Potency is read from the fitted curve at half-maximal effect; tags tell the direction and shape of the fitted curve.
row,Compound,Potency
1,COc1cc2ccccc2cc1C(=O)Nc1ccc2oc(-c3cccnc3)nc2c1,"inconclusive: 8.91 µM [inhibitor, partial curve, poor fit]"
2,Cc1nnc(N2CCC(C(=O)NCCC(C)C)CC2)c2nn(-c3ccc(Cl)cc3)c(C)c12,"inconclusive: 39.8 µM [inhibitor, single point]"
3,C=C(C)CSc1nc(-c2ccccc2)cc(-c2ccc(OC)cc2)c1C#N,"inconclusive: 25.1 µM [inhibitor, partial curve, poor fit]"
4,CC(=O)NCCC12CC3CC(CC(C3)C1)C2,inactive
5,CCc1noc(-c2ccn3c(CNC(=O)c4cccnc4)nnc3c2)n1,active: 28.2 µM
6,O=C(O)c1ccc(-c2ccccc2)o1,"inconclusive: 35.5 µM [inhibitor, partial curve, poor fit]"
7,CC(C)CCNC(=S)Nc1ccc(Cl)cc1Cl,inactive
8,O=[N+]([O-])c1ccc(O)c(/C=N/NC(=S)Nc2ccc(Cl)cc2Cl)c1,"inconclusive: 15.8 µM [inhibitor, partial curve, poor fit]"
9,CCc1nc2nc(C)cc(Nc3cccc(C)c3C)n2n1,inactive
10,CCc1ccc(NC(=O)CN2C(=O)C3(SCC(=O)N3c3ccc(F)c(F)c3)c3ccccc32)cc1 (centres undefined),inactive
11,Cc1cc2ccccc2n1CCNC(=O)c1ccc(Br)cc1,"inconclusive: 15.8 µM [inhibitor, partial curve, poor fit]"
12,CCN(CC)CCNC(=O)c1c2c(nc3ccccc13)C(=O)N(C1CCCCC1)C2,"inconclusive: 25.1 µM [inhibitor, partial curve, poor fit]"
13,CN(CCc1noc(C(=O)NCc2ccccc2)n1)C(=O)Nc1ccc(F)c(Cl)c1,"inconclusive: 39.8 µM [inhibitor, single point]"
14,COCCn1cc(C(=O)NC2CCCc3c2[nH]c2c(Cl)cccc32)c2ccccc2c1=O (centres undefined),"inconclusive: 14.1 µM [inhibitor, partial curve, poor fit]"
15,COc1cccc(NC(=O)Cn2cc(C(=O)c3ccc(C)cc3)c(=O)c3cc(OC)ccc32)c1,"inconclusive: 14.1 µM [inhibitor, partial curve, poor fit]"
16,Cc1ccc(NS(=O)(=O)c2cc(C(=O)Nc3ccc4oc(C)nc4c3)ccc2C)cc1,inactive
17,CCOc1ccc(NC(=O)/C(C#N)=C\c2ccc(-c3ccc(Cl)cc3)o2)cc1,"inconclusive: 1.26 µM [inhibitor, full curve, poor fit]"
18,Cc1ccc(F)cc1NC(=O)c1nn(Cc2ccccc2)c(=O)c2ccccc12,"inconclusive: 20 µM [inhibitor, partial curve, poor fit]"
19,Cc1ccc(C(=O)NC2CCN(c3nc4ncccc4o3)CC2)cc1,active: 35.5 µM
20,CNC(=O)c1cccnc1N1CC2CC(C1)[C@H]1CCCC(=O)N1C2 (some centres undefined),"inconclusive: 25.1 µM [inhibitor, single point]"
21,COc1ccc2[nH]c3c(c2c1)CCNC31CCN(C2CCCC2)CC1,active: 22.4 µM
22,COC(=O)c1cccc(NCc2ccc(C(F)(F)F)cc2)c1,"inconclusive: 28.2 µM [inhibitor, single point]"

row,Compound,Potency
1,COc1ccc(C(=O)NC(=S)NNC(=O)c2cccc(C)c2)cc1,"inconclusive: 31.6 µM [inhibitor, partial curve, poor fit]"
2,COc1ccccc1CN1C[C@@H]2C(=O)N(CCCN3CCCC3=O)C(=O)[C@@H]2C1,inactive
3,COc1cc(/C=N\NC(=O)c2cccnc2)ccc1OC(=O)c1ccccc1Cl,inactive
4,COc1ccccc1-c1cc(C(=O)NCc2ccccc2)c2c(-c3ccc(C)cc3)[nH]nc2n1,"inconclusive: 35.5 µM [inhibitor, partial curve, poor fit]"
5,COCC(=O)NC[C@H]1CCN(Cc2sccc2C)C[C@H]1N(C)C,"inconclusive: 31.6 µM [inhibitor, partial curve, poor fit]"
6,COc1ccc(-c2nc3cc(NC(=O)CSc4ccc(C)cc4)ccc3o2)cc1,"inconclusive: 17.8 µM [inhibitor, partial curve, poor fit]"
7,CCOc1ccc2c(n1)CCN(C(=O)Cc1ccccc1)C2,inactive
8,Cc1cnc(CC2CCN(C(=O)Cc3cccc(F)c3)CC2)n1CC1CC1,inactive
9,CC(C)N1CCC(NC(=O)c2cccc3ccccc23)CC1,inactive
10,CCOc1ccc(CNC(=O)Cc2ccc(NC(=O)N3CCSc4ncccc43)cc2)cc1,"inconclusive: 20 µM [inhibitor, partial curve, poor fit]"
11,Cc1cccn2c(=O)c(C(=O)NCc3cccc(F)c3)cnc12,"inconclusive: 2.51 µM [inhibitor, partial curve, poor fit]"
12,COc1ccnc(N2CCN(CC3(O)CCCNC3)CC2)n1 (centres undefined),inactive
13,Cn1c(-c2ccccc2)c(C(=O)COC(=O)COc2cccc3c2OC(C)(C)C3)c2ccccc21,"inconclusive: 39.8 µM [inhibitor, single point]"
14,O/N=C/c1cccc(Oc2ccccc2)c1,inactive
15,COc1cc(-c2nnc(-c3cc(-c4ccccc4)nc4ccccc34)o2)cc(OC)c1OC,"inconclusive: 39.8 µM [inhibitor, single point]"
16,Fc1ccc(NN=C2c3ccccc3-c3ccccc32)c(F)c1,inactive
17,Cc1cccc(NC(=O)Cn2ccn3nc(-c4ccccc4)c(CO)c3c2=O)c1C,"inconclusive: 25.1 µM [inhibitor, single point]"
18,COc1ccc(-c2csc(=Nc3ccccc3)n2CCO)cc1F,"inconclusive: 22.4 µM [inhibitor, single point]"
19,Cc1ccc2c(c1)-c1ccccc1C2=Nc1cccc2ccccc12,"inconclusive: 28.2 µM [inhibitor, partial curve, poor fit]"
20,CC(C)(C)c1nnc2sc(-c3c[nH]c4ccccc34)nn12,inactive
21,COc1cccc2c1OCC(C(=O)NCCc1ccc(N(C)C)cc1)C2 (centres undefined),"inconclusive: 15.8 µM [inhibitor, partial curve, poor fit]"
22,COC(=O)c1cc(-c2ccc(F)cc2)nc2onc(-c3ccccc3)c12,"inconclusive: 1.78 µM [inhibitor, full curve, poor fit]"
